Measurements from PubChem BioAssay AID624417 (National Center for Advancing Translational Sciences (NCATS), 2012).
Values joined by “and” are separate entries in the source; they are usually repeats but may differ in a detail not shown here. Identical values can stand only once. The whole screen tested about 410,000 compounds, of which about 6,400 (1.6%) were called active. This list was built around the results that the source calls inconclusive (neither active nor inactive); the mix of calls is not that of the screen. The call rests on the fitted dose curve; in most records, active means well fitted inhibition curve with a large enough effect; inconclusive means small, poorly fitted or top-dose-only effect; inactive means no such curve, though single readings can be large or run the other way. Potencies beside an inconclusive call are fits to weak or partial responses and may not hold up.

target: Glucagon-like peptide 1 receptor (Homo sapiens) (UniProt P43220); test: qHTS of GLP-1 Receptor Inverse Agonists (Inhibition Mode); conditions: HEK293 GLP-1R CRE-luciferase, luminescence, 24 h, GLP-1R form is constitutively active; activity change, negative = inhibition: at 38.3 µM (top of the series) unless noted; further: nearly all actives have a fitted effect of over 55% in size
How it was run: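 Stable HEK293 clone (constitutively active GLP-1R + cAMP-response luciferase); 200 cells/uL plated, 12 h pre-culture, compound 24 hr, 37 deg C/5% CO2; detection reagent 12 min RT; luminescence.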
On the % scale 0 is the no-effect control and ±100 the full control effect; potency means the concentration at half of the fitted maximal effect; tags describe the fitted curve by direction and shape.

Sequence of UniProt P43220 (P43220 whole entry, looked up): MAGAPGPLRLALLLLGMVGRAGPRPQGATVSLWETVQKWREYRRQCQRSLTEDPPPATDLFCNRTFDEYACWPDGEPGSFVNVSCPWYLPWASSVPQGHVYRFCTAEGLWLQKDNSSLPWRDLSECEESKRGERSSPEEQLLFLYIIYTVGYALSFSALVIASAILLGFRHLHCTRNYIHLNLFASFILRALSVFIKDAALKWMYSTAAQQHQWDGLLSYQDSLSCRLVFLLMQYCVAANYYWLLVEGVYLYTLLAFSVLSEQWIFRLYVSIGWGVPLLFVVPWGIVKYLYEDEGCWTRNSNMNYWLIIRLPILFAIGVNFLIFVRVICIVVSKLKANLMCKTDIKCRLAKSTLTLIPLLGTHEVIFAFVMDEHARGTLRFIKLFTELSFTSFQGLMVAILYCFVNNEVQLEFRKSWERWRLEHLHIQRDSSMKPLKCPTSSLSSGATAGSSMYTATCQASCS

Potency, inconclusive:
O=C(NC(=S)Nc1ccccc1O)c1cncc(Br)c1 28.2 µM [inhibitor, single point], Cc1cc2oc(=O)c(CC(=O)NCCCN(C)C)c(C)c2c2occ(C(C)(C)C)c12 2.24 µM [inhibitor, full curve, poor fit], CCOc1ccc2nc(CN3CCN(Cc4ccccc4OCC)C(CCO)C3)ccc2c1 (stereo not drawn) 28.2 µM [inhibitor, single point], O=C(Nc1ccc(F)c(Cl)c1)c1cc(C2CCCN(C(=O)c3cccs3)C2)on1 (stereo not drawn) 11.2 µM [inhibitor, partial curve, poor fit], C[C@@H]1CN([C@H](C)CO)S(=O)(=O)c2ccc(C#Cc3ccccc3)cc2O[C@H]1CN(C)C(=O)Nc1ccc2c(c1)OCO2 10 µM [inhibitor, single point], Cc1cccc(N2C(=O)C(CC(=O)Nc3ccc(F)cc3)N(C3CCCC3)C2=O)c1 (stereo not drawn) 10 µM [inhibitor, single point], O=[N+]([O-])c1ccc(O)c(/C=N/Nc2ccccn2)c1 7.94 µM [inhibitor, partial curve, poor fit], Cc1ccc([C@H]2C[C@H](O)[C@@H](n3cc(-c4ccc(F)cc4)nn3)CN2C(=O)C2CCCCC2)cc1 15.8 µM [inhibitor, single point], CCC(=O)Nc1cccc(-c2ccc(N3CCN(C)CC3)nn2)c1 15.8 µM [inhibitor, partial curve, poor fit], C=CCOc1ccccc1CN(C(=O)CCl)c1ccc2c(c1)OCO2 28.2 µM [inhibitor, single point], CCN1CCN(Cc2ccc(NC(=O)c3cc(NC(=O)c4cc(C)on4)cc(OC)c3)cc2C(F)(F)F)CC1 28.2 µM [inhibitor, single point], CCC(C)c1ccc(NC(=O)COc2c(F)c(F)c(C(F)(F)F)c(F)c2F)cc1 (stereo not drawn) 10 µM [inhibitor, partial curve, poor fit], CCCCCCSc1cccc(-c2nc3ccccn3c2NCc2ccccc2)c1 25.1 µM [inhibitor, single point] and 28.2 µM [inhibitor, single point], COc1cccc(C(=O)Cn2c(=N)n(C)c3ccccc32)c1 3.16 µM [inhibitor, partial curve, poor fit], Cc1[nH]c2ccc(F)cc2c1CCN(Cc1ccncc1)C(=S)Nc1ccccc1 28.2 µM [inhibitor, single point], CCc1ccc(NC(=O)CNC(=O)[C@@H]2Cc3ccccc3CN2C(=O)OC(C)(C)C)cc1 10 µM [inhibitor, single point], CC(C)(C)OC(=O)COc1cc(OCC(=O)OC(C)(C)C)c2c(=O)cc(-c3ccccc3)oc2c1 7.94 µM [inhibitor, single point], COc1ccc(C(=O)N2CC(=O)Nc3ccc(C)cc3C2c2ccc(F)cc2)c(OC)c1 (stereo not drawn) 11.2 µM [inhibitor, single point], O=C(/C=C/c1ccc([N+](=O)[O-])cc1)OCC(=O)N1c2ccccc2Sc2ccccc21 11.2 µM [inhibitor, partial curve, poor fit], CC(=O)c1c(C)nc(Nc2nc(C)c3cc(C)ccc3n2)nc1C 0.794 µM [inhibitor, full curve, poor fit], COc1ccc(/C=C/C(=O)Nc2ccccc2C(=O)NCC(c2ccc(OC)cc2)N(C)C)cc1 (stereo not drawn) 7.94 µM [inhibitor, partial curve, poor fit], COC(=O)c1ccc(CC2(C)C(=O)Nc3ccc(OC(F)(F)F)cc32)o1 (stereo not drawn) 28.2 µM [inhibitor, single point], CCOC(=O)[C@]12CCC=C1N(Cc1ccc(Cl)cc1Cl)C(=O)[C@H](CC(=O)NCc1ccc(C)o1)C2 28.2 µM [inhibitor, single point], COc1ccc(Cl)cc1NC(=O)CN1c2ccccc2CC1C (stereo not drawn) 28.2 µM [inhibitor, single point], CC[C@]12c3[nH]c4ccc(Cl)cc4c3CCN1C(=O)[C@@H](CC(=O)NC/C=C(\C)CCC=C(C)C)C[C@@H]2C(=O)N1CCN(C(=O)C2CC2)CC1 12.6 µM [inhibitor, single point], CC1(C)CC(=O)C2=C(C1)OC(N)=C(C#N)C2c1cn(-c2ccccc2)nc1-c1ccccc1 (stereo not drawn) 28.2 µM [inhibitor, single point], CCCCCn1c(NCc2ccco2)nc2ccccc21 28.2 µM [inhibitor, single point], COc1ccc(CCNCc2c(-c3ccccc3)n(C)c3ccccc23)cc1 10 µM [inhibitor, partial curve, poor fit], CCOC(=O)c1cc(-c2ccccc2)n(CCC(=O)N2CCN(c3ccccn3)CC2)c1C 14.1 µM [inhibitor, partial curve, poor fit], CCOc1ccc(NC(=O)N(Cc2ccc(CC)cc2)Cc2cn[nH]c2-c2ccc(OC)cc2)cc1 3.55 µM [inhibitor, single point], Cc1ccc(N2C(=O)N(CC(=O)Nc3cccc([N+](=O)[O-])c3C)C(=O)C2C)cc1 (stereo not drawn) 10 µM [inhibitor, partial curve, poor fit], O=C(Nc1ccc(S(=O)(=O)NC2=NCCCCC2)cc1)c1ccc(C(F)(F)F)cc1 10 µM [inhibitor, partial curve, poor fit], Cc1ccc(C(C)C)c(OCC(=O)Nc2cccc(-c3nc4ncccc4o3)c2)c1 28.2 µM [inhibitor, single point], CCO/N=C(\C)c1c(O)c(CC)c(-c2ccccc2)n(-c2ccccc2)c1=O 28.2 µM [inhibitor, single point], O=C(CNC1CCCCC1)Nc1ccc([N+](=O)[O-])cc1C(=O)Nc1ccccc1F 12.6 µM [inhibitor, partial curve, poor fit], CCN1CCCC1CN(Cc1cc2ccc(C)cc2[nH]c1=O)C(=S)Nc1cccc(OC)c1 (stereo not drawn) 28.2 µM [inhibitor, single point], Cc1cc(C)cc(NC(=O)C(c2ccccc2)N2CCCC2)c1 (stereo not drawn) 14.1 µM [inhibitor, partial curve, poor fit], Cc1ccc(NC(=O)CN2CCCCCC2)c(Br)c1 14.1 µM [inhibitor, single point], CC(=O)Nc1nc2ccccc2n1Cc1ccc(C)cc1 22.4 µM [inhibitor, partial curve, poor fit], Cc1cc(C)c(S(=O)(=O)NCC2CCC(C(=O)NCc3ccc4c(c3)OCO4)CC2)c(C)c1 (stereo not drawn) 28.2 µM [inhibitor, single point], O=C(Nc1ccccc1)N1CCCN(Cc2c(F)cccc2Cl)CC1 3.16 µM [inhibitor, partial curve, poor fit], CC(NC(=O)CSc1nnc(-c2cc3cc(Cl)ccc3o2)n1C)c1ccccc1 (stereo not drawn) 17.8 µM [inhibitor, partial curve, poor fit], O=C(Nc1ccc([N+](=O)[O-])cc1Cl)c1cc(Cl)ccc1O 1.58 µM [inhibitor, full curve, poor fit], CC(Oc1ccc(Cl)cc1Cl)C(=O)NCCC1=CCCCC1 (stereo not drawn) 11.2 µM [inhibitor, single point], CCCCC1=CC2=C(c3ccco3)C(=O)C(C)(OC(=O)c3ccc(OC)cc3)C(=O)C2=CN1CCCOC(C)C (stereo not drawn) 15.8 µM [inhibitor, single point], CCN(CC(=O)NCc1ccc(F)cc1)C(=O)C1CCN(S(=O)(=O)c2ccc(C(C)C)cc2)CC1 17.8 µM [inhibitor, single point], S=C(NC1CCCCC1)N1CCOCCOCCN(C(=S)NC2CCCCC2)CCOCCOCC1 28.2 µM [inhibitor, single point]

Activity change, negative = inhibition, inactive:
COc1ccc(N(CC(=O)NC2CC3CCC2C3)S(=O)(=O)c2ccc(C)cc2)cc1OC (stereo not drawn) 15%, Cc1sc2ncn(CC(=O)N3CCN(c4ccccc4F)CC3)c(=O)c2c1S(=O)(=O)N1CCN(c2ncccn2)CC1 14.3%, COc1ccc(C(=O)NN(C)c2nc(-c3ccccc3)nnc2C(F)(F)F)cc1 -3.45%, O=C(/C=C1\C(=O)Nc2ccccc21)/C=C1\C(=O)Nc2ccccc21 6.08%, Cc1ccc(C(O)(C(=O)NNc2ccccn2)c2ccc(C)cc2)cc1 32.8%, COCCn1c(SCC(=O)Nc2cccc(OC)c2)nnc1-c1ccc(Cl)cc1 -0.746%, CN1CCN(c2ccc(NC(=S)NC(=O)c3cccc4ccccc34)cc2)CC1 10%, OCCC1CN(Cc2ccc(Oc3ncccn3)cc2)CCN1Cc1ccc(F)c(F)c1 (stereo not drawn) -26.8%, N#Cc1c(N)n[nH]c1-c1cc2c([nH]1)CCCC2 0%, Cc1cc(C)c2oc(-c3cc(NC(=O)Cc4ccccc4)ccc3Cl)nc2c1 -6.72%, c1ccc(-c2csc3ncnc(N4CCOCC4)c23)cc1 0%
